# Measured values published in the supplement of paper PMC3724861.
# This is one part of the list.
# Test system: T1, Caupolican (Caup) homeodomain DNA-binding domain
# T1 sequence: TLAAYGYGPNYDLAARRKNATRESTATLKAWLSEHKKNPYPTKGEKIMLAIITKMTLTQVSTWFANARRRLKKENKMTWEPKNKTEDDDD
# Assay: PBM E-score (8-mer, recovered from the published 9-mer minima) (E-score (dimensionless, -0.5 to 0.5)); Drosophila protein; higher = stronger relative binding preference, active = 0.31 or more
# Method in brief: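 An enrichment score, with higher meaning stronger, expresses relative binding preference for each short DNA word. The protein used was Caup's homeodomain DNA-binding domain (residues 214-303), produced by in vitro transcription and translation and tested at 100 nM on custom-designed protein binding microarrays. The 8-mer values were recovered from published 9-mer scores, each equal to the lower of its two constituent 8-mer scores.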
row,Sequence,PBM E-score
1,CTGGAGGC,inactive: -0.18
2,ATTGCGGC,inactive: -0.0444
3,CTTTGCCA,inactive: -0.134
4,AGTTTATC,inactive: 0.144
5,AACATGTC,active: 0.424
6,GACAGACA,inactive: 0.255
7,ATTAACGA,≥ 0.149
8,AACTGCGG,inactive: -0.14
9,CGACAACG,inactive: 0.168
10,AAGTTTGG,inactive: -0.0482
11,ATCTTACG,inactive: 0.0741
12,CCGCCGAG,inactive: -0.203
13,AATAGAGG,inactive: -0.0582
14,GGCCAAGA,inactive: -0.12
15,CGTGAGAG,inactive: -0.19
16,CCCTGCAG,inactive: -0.199
17,CCTTCACG,inactive: -0.0872
18,AACTAAGT,inactive: -0.00681
19,CGTTTTGC,inactive: -0.0139
20,ATGTGTCC,inactive: 0.127
21,GGCTGGAA,inactive: -0.0833
22,CCAAAGTC,inactive: -0.146
23,CTGACAGC,inactive: -0.0248
24,CTCGCACA,inactive: -0.0236
25,GCTGGGGA,inactive: -0.187

row,Sequence,PBM E-score
1,GCATTACA,inactive: 0.267
2,CAAAAACC,inactive: -0.0001
3,CAAGAAGA,inactive: 0.0505
4,AAGAGTGT,inactive: 0.0619
5,AAAACCCG,inactive: -0.0849
6,CTATTCAC,inactive: 0.0399
7,CAGCAATC,inactive: 0.0661
8,ACGACATG,active: ≥ 0.416
9,TGGTACCA,inactive: 0.0334
10,ACATCACT,inactive: 0.303
11,CATCAACG,inactive: -0.0414
12,GATAGGAC,inactive: -0.0335
13,GGGTTAGA,inactive: -0.0985
14,CGCAAGAG,inactive: -0.088
15,GGATAGAC,inactive: 0.0611
16,ACGGTACT,inactive: 0.0745
17,GGGGCTAC,inactive: -0.206
18,ACCTACAT,inactive: 0.299
19,AAACACAC,inactive: 0.243
20,AAGCGATC,≥ 0.0356
21,TAATCCTA,inactive: 0.0768
22,AACATGAT,active: ≥ 0.424
23,CACGAACC,inactive: -0.0566
24,CAGGGTAA,inactive: 0.02
25,CAGGATCA,inactive: 0.0356

row,Sequence,PBM E-score
1,CCTACTAG,inactive: 0.0878
2,CGCGGACC,inactive: -0.198
3,GGTCAAGA,inactive: 0.0615
4,ATATGGCG,inactive: -0.00224
5,AGTGGATC,inactive: -0.0168
6,CGGACATC,inactive: 0.217
7,CGCCGAAA,inactive: -0.103
8,TATGGAAA,inactive: 0.0858
9,CACGTGAA,inactive: 0.00852
10,AGCACACG,inactive: 0.042
11,AAAATAAC,inactive: 0.0794
12,GTCGGCAC,inactive: -0.1
13,ACGAATGC,inactive: 0.0248
14,ACTTTTCA,inactive: 0.0643
15,AGGCAATC,inactive: 0.0567
16,CCTTTGTA,inactive: 0.138
17,CCACTGGG,inactive: -0.184
18,AGCCCAAT,≥ -0.00456
19,ATCGCTTG,inactive: -0.0165
20,CGGGATCA,inactive: -0.0923
21,AAGTACGT,inactive: 0.109
22,CATATCTC,inactive: 0.0782
23,CACTCCGC,inactive: -0.127
24,ACTTTCAG,inactive: -0.0396
25,GCACTCCA,inactive: -0.104

row,Sequence,PBM E-score
1,GCCGAGAC,inactive: -0.106
2,CAGACAGA,inactive: 0.0534
3,CATCCCAA,inactive: 0.0667
4,GGTACGAC,inactive: 0.0706
5,ACGATCAT,inactive: 0.125
6,GGCTACTA,inactive: 0.0331
7,CTCGATGC,inactive: -0.114
8,AATCGCAC,inactive: -0.0643
9,ATTGGGTA,inactive: 0.0577
10,GAAAACGC,inactive: -0.0485
11,CCACAGAA,inactive: -0.00495
12,GATCGATA,inactive: 0.154
13,GGTACATA,inactive: 0.282
14,ATTTATTC,inactive: 0.103
15,ACTAGAAC,inactive: 0.156
16,ATGTGAGG,inactive: 0.0921
17,GAATTTTA,inactive: 0.0305
18,AGGGGGAT,≥ -0.172
19,CTCATAGC,inactive: -0.0726
20,ACTTGCCA,inactive: 0.0184
21,CTCTTCGC,inactive: -0.128
22,CAGGGGAG,inactive: -0.158
23,CGGTTACG,inactive: -0.126
24,CACTTAGG,inactive: -0.0173
25,ATTATAGA,inactive: 0.117

row,Sequence,PBM E-score
1,ACAAAAGG,inactive: -0.0265
2,CTGAAGCA,inactive: -0.0958
3,TAGCCTGA,inactive: 0.0341
4,CCGCATCC,inactive: -0.16
5,CTACCCAG,inactive: -0.103
6,GCAACTCA,inactive: 0.038
7,CCGGCGAC,inactive: -0.197
8,ACAATAAC,inactive: 0.173
9,AGGGTTCC,inactive: -0.0703
10,GGCCCTTA,inactive: -0.112
11,GGGCGAAA,inactive: -0.115
12,TAGCAGGA,inactive: -0.0158
13,AAGTTCTG,inactive: 0.0453
14,CAGAGACC,inactive: -0.146
15,AATAGAAG,inactive: 0.0489
16,ATTCTGCC,inactive: -0.161
17,CTCGCCTC,inactive: -0.233
18,CGCGCGGA,inactive: -0.104
19,CTGGATAC,inactive: 0.0336
20,CTGCTCGC,inactive: -0.11
21,CTTAGAAA,inactive: -0.0449
22,GGTTAGAC,inactive: 0.0284
23,AACCTCGG,inactive: -0.148
24,ACCGAGCA,inactive: -0.0935
25,ACTCGCCA,inactive: -0.0459

row,Sequence,PBM E-score
1,ATCACCGC,inactive: -0.014
2,AGTTAGAT,inactive: 0.0521
3,AGAGACTG,inactive: -0.161
4,GGAATGCA,inactive: 0.00656
5,ACGAGTTG,inactive: 0.117
6,ACGCGTTA,inactive: 0.0271
7,GTTTATCA,inactive: 0.111
8,AAGTAGAC,inactive: 0.0547
9,CCCGAATA,inactive: -0.0458
10,AAATTATT,inactive: 0.16
11,TTCAACAA,inactive: 0.299
12,CCAACTAG,inactive: 0.0916
13,GCCGAACA,inactive: 0.0642
14,AACCTGAA,inactive: 0.0247
15,CATGGCAA,inactive: -0.00298
16,TGCTGTAA,inactive: 0.177
17,GGGCTTGA,inactive: -0.151
18,CCAATTGC,inactive: -0.095
19,ACACAGGG,inactive: 0.0598
20,ACTTCGGG,inactive: -0.124
21,CAAAGCAC,inactive: -0.0185
22,CTGTCTTC,inactive: -0.0198
23,AAAGTCCC,inactive: -0.13
24,GGGGATCA,inactive: -0.109
25,CGGCACGC,inactive: -0.254

row,Sequence,PBM E-score
1,TAGCGGAA,inactive: -0.111
2,ACAGCTAG,inactive: -0.00013
3,ATCCACTG,inactive: 0.0509
4,ACCTTGCT,inactive: 0.0548
5,GTATTAAC,inactive: 0.136
6,CGTGGGAA,inactive: -0.0756
7,TGCCAAAA,inactive: -0.00482
8,AAAGTTCA,inactive: 0.0717
9,ACTTTACG,inactive: 0.0969
10,GATAGAGC,inactive: -0.0871
11,CACCGTCG,inactive: -0.172
12,CCACTAAC,inactive: 0.0845
13,TGCATGAA,inactive: 0.126
14,GATACAAC,inactive: 0.207
15,ATTTACGG,inactive: 0.0533
16,ATTTTGAA,inactive: 0.0732
17,GACTCAAC,inactive: 0.0307
18,AGCAGATA,inactive: 0.0223
19,CTTGCATA,inactive: 0.0657
20,ACCCAGCG,inactive: -0.215
21,AAGGGATT,inactive: -0.0247
22,ACTGAGGA,inactive: -0.111
23,AAAGAGGT,inactive: -0.00981
24,ACCACTAT,inactive: 0.0907
25,CCATTTAC,inactive: 0.0731

row,Sequence,PBM E-score
1,ATTTAGCC,inactive: -0.0256
2,ATGATGAA,inactive: 0.158
3,CACATCCC,inactive: -0.0152
4,GGCGATAA,inactive: -0.141
5,GACATTAC,inactive: 0.199
6,AGGCCGAA,inactive: -0.0931
7,AGATCGTC,inactive: -0.0169
8,ACCAACTG,inactive: 0.0375
9,TATCGCGA,inactive: -0.0271
10,GACGAGGA,inactive: 0.0375
11,ACAAGGTG,inactive: 0.255
12,CTCTGGTA,inactive: 0.0517
13,AGCCGTGG,inactive: -0.188
14,AGAAGCAG,inactive: -0.0606
15,CATAGTGG,inactive: -0.0156
16,CGGGCTAA,inactive: -0.199
17,ACCCCGAC,inactive: -0.161
18,ACTTACCA,inactive: 0.00311
19,CCTTGGGA,inactive: -0.14
20,AGTCGAGG,inactive: -0.0754
21,TAATAGAA,≥ 0.151
22,GTAGACTA,inactive: 0.0347
23,ATATAGAA,≥ 0.159
24,AGGGTCAG,inactive: -0.187
25,AGACAGAC,inactive: 0.102

row,Sequence,PBM E-score
1,CTCAACTA,inactive: 0.0164
2,AATCCCTA,inactive: 0.0149
3,ACTATCCT,inactive: -0.00826
4,AGGGCTAG,inactive: -0.145
5,AGCCTGGA,inactive: -0.19
6,GAACGAAC,inactive: 0.0277
7,AAAGTCCA,inactive: -0.0306
8,AAAATGGC,inactive: -0.00549
9,CACAGTTC,inactive: 0.0267
10,CACTTTCG,inactive: 0.0317
11,CATAGCGA,inactive: 0.0218
12,CGTCACCC,inactive: -0.234
13,AGGTGGGG,inactive: -0.193
14,GTCCCTGA,inactive: -0.0148
15,GAGATGGC,inactive: -0.0967
16,GTCCAGAA,inactive: 0.051
17,GCGGCGGA,inactive: -0.222
18,CCTTATGC,inactive: -0.109
19,GAGCTATC,inactive: -0.11
20,ATGACTGG,inactive: -0.00062
21,CCGTCCCG,inactive: -0.221
22,CTAGGAAA,inactive: -0.0105
